# From PMC4336329 (PLoS ONE, 2015)
# About 14,000 (4.5%) of roughly 310,000 compounds showed an effect of 50% or more. The effect is printed as a negative number. The list shows a part of the results.
# Target: human ether-à-go-go-related gene (hERG) potassium channel (human, UniProt Q12809)
# Assay: primary screen, population patch clamp on CHO cells stably expressing hERG
# 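Further: peak tail current of the secondary pulse compared with the same well before compound.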
# Sequence of human ether-à-go-go-related gene (hERG) potassium channel (Q12809 whole entry, looked up): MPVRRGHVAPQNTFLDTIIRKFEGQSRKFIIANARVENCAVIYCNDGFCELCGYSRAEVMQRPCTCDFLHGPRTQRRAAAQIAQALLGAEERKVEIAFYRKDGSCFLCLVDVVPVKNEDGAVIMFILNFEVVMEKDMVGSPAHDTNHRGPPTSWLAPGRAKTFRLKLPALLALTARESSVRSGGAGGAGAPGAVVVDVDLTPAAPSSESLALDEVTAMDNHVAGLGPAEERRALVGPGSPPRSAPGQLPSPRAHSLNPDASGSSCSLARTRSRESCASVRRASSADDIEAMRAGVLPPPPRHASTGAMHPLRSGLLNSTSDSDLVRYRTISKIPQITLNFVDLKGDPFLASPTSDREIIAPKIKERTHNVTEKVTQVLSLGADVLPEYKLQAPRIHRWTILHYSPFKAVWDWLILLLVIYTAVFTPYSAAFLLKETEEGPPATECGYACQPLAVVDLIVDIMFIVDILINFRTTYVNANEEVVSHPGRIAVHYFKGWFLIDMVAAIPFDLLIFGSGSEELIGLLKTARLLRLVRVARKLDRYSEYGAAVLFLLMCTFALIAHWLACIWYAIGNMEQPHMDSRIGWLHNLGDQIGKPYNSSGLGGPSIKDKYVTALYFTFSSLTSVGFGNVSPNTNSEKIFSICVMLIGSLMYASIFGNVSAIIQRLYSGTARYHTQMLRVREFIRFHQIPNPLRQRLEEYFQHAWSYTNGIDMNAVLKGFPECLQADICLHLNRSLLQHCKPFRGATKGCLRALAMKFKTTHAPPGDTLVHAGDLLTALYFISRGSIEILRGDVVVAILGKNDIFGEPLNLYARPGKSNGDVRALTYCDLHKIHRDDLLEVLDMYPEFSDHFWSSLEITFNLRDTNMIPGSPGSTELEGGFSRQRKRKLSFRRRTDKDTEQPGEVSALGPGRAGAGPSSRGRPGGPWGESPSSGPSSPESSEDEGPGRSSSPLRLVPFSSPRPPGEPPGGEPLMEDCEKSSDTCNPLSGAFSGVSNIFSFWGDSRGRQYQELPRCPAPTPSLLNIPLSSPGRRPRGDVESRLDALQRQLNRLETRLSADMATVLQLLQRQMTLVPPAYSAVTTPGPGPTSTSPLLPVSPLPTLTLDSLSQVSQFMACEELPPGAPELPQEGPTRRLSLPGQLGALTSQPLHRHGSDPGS
row,Structure (SMILES),"hERG current change (%, negative = inhibition) at 10uM [%]"
1,CCOc1ccc(C(=O)OCC(=O)Nc2cc(C)on2)cc1OCC,-19.9
2,COC(=O)c1c(-c2ccc3ccccc3c2)csc1NC(=O)Cc1ccc(OC)c(OC)c1,8.06
3,CCC(CC)C(=O)Nc1ccc(Sc2ccc([N+](=O)[O-])cc2)cc1,-7.16
4,Cc1ccc(C)c(CNS(=O)(=O)c2ccc3c(c2)C(C)(C)C(=O)N3C)c1,-20.4
5,C=CCOC(=O)C1=C(C)NC(SCC)=C(C#N)C1c1ccc(Cl)cc1 (centres unmarked),4.87
6,CC(O)c1ccc(OCCN(C)c2ccccn2)cc1 (centres unmarked),12.9
7,CSc1ccc(S(=O)(=O)NC2CCCCCC2)cc1,-25.2
8,CCN(CC)S(=O)(=O)c1ccc(/C=C/C(=O)OCC(=O)c2c(N)n(C)c(=O)n(C)c2=O)cc1,11.5
9,CCOc1cccc(CNc2nnnn2C)c1,19.4
10,Cc1ccc(S(=O)(=O)N/N=C2/CC(=O)CC(C)(C)C2)cc1[N+](=O)[O-],7.57
11,Cc1ccc(C(=O)CSc2ncnc3ccccc23)o1,0.357
12,Cc1ccc(S(=O)(=O)CCC(O)c2ccc(Cl)cc2)cc1 (centres unmarked),2.64
13,Cc1cccc(NC(=O)NCCc2ccc(Cl)cc2)c1,25
14,COc1ccc(N(C(=O)Cn2nnc(-c3ccc(Cl)cc3)n2)C(C(=O)NCC2CCCO2)c2ccncc2)cc1 (centres unmarked),4.81
15,Cc1cc(C)cc(NC(=O)N2CCC(NC(=O)c3ccccc3C)CC2)c1,5.74
16,O=C(O)c1cnn2c(C(F)F)cc(C3CC3)nc12,3.73
17,COc1cccc(/C=C(/C(=O)OCC(=O)NCC2CCCO2)c2ccccc2)c1 (centres unmarked),13.7
18,COc1cc2c(cc1OC)C(c1ccc(-c3ccc(Cl)cc3Cl)o1)=NCC2,2.19
19,COc1ccc(S(=O)(=O)NC(C)C(=O)NCC2CCCO2)cc1OC (centres unmarked),23.3
20,CCOc1ccc([N+](=O)[O-])cc1CNCCc1ccccc1.Cl,-45.5
21,O=C(O)C1CCCN1C(=O)OCC1c2ccccc2-c2ccccc21 (centres unmarked),10.2
22,Cn1c(=O)[nH]c2ncn(C)c2c1=O,4.56

row,Structure (SMILES),"hERG current change (%, negative = inhibition) at 10uM [%]"
1,CCCSC1=C(C#N)C(c2ccc(Cl)cc2Cl)CC(=O)N1 (centres unmarked),12.2
2,CCCC(C)C(=O)Nc1ccncc1 (centres unmarked),8.78
3,CC(=O)Nc1ccc2c(CSc3nncs3)cc(=O)oc2c1,-21.5
4,COc1ccc(OCCNC2CCCC2)cc1,0.614
5,COc1ccc(C)cc1NC(=O)CN1CCN(C/C=C/c2ccccc2)CC1,-78.3
6,CC1CC(=O)N(c2ccc(NCc3ccc(Cl)cc3)c([N+](=O)[O-])c2)C1=O (centres unmarked),14
7,CCn1nc(C(=O)OC2CCOC2=O)c2ccccc2c1=O (centres unmarked),1.38
8,Cc1cc(CC(C)C)n(-c2nc3ccccc3c(=O)n2OCc2ccccc2)n1,-7.08
9,CCc1noc(C)c1C(=O)OCC(=O)N(CCOC)c1c(N)n(Cc2ccccc2)c(=O)[nH]c1=O,16.7
10,COc1ccccc1N1CCN(CC(O)c2ccc3cc[nH]c3c2)CC1 (centres unmarked),-69.3
11,CN(C)CC(=O)c1c[nH]c2ccccc12,13.8
12,COCCNC(=O)COc1ccc(Nc2ccccc2)cc1,-2.91
13,CCSCc1nc(N)nc(NCCc2ccccc2)n1,9.33
14,O=Cc1ccc(N2CCCC2)c([N+](=O)[O-])c1,-26.5
15,Cc1ccc(NC(=O)CCN2C(=O)C3C4CCC(C4)C3C2=O)cc1Cl (centres unmarked),-0.338
16,COc1cccc(NC2SC(=O)N(c3ccccc3)C2=O)c1 (centres unmarked),10.2
17,CC(NS(=O)(=O)OCC(Cl)(Cl)Cl)c1ccc(Br)cc1 (centres unmarked),0.818
18,Cc1ccc(C)c(N2CCN(C(=O)CN(C)S(=O)(=O)c3ccc4c(c3)CCC(=O)N4)CC2)c1,-41.5
19,COC(=O)N/N=C/c1cn(CCOc2ccccc2OC)c2ccccc12,-3.78
20,Cc1cc(S(=O)(=O)NCC(c2ccccc2)c2ccccc2)ccc1-n1cnnn1,0.0665
21,CCc1nc2cc(C)nn2c2nc3ccccc3n12,-30.9
22,COCCn1c(C)cc(/C=C2/SC(=O)N(C(C)C(=O)OC)C2=O)c1C (centres unmarked),-35.7
